Test results as given in ChEMBL document CHEMBL1157539, “Thousands of chemical starting points for antimalarial lead identification” (Nature, 2010).
Over roughly 13,000 compounds, “IFI” has its median near 4; the highest 2% begin near 17. Some of the results follow.

Experiment: GSK_TCMDC: Inhibition Frequency Index (IFI). The number of non-kinase HTS assays where a compound showed > 50 % inhibition, expressed as a percentage of the number of such assays in which the compound was tested (-0 is zero)
Format: functional
Compound Cc1cc([N+](=O)[O-])ccc1N1CCN(CCCCNC(=O)c2ccc(NC(=O)c3ccc(Cl)cc3)cc2)CC1 has an IFI of 4.39%.
Work on CCOC(=O)c1ccc(N2CCN(CCCNC(=O)/C(=C/C=C/c3cc4cc(Cl)c(Cl)cc4[nH]3)OC)CC2)cc1 yielded an IFI of 6.11%.
In the case of CCOc1ccc(OCC(=O)Nc2nc(-c3ccc(OC)cc3)c(C)s2)cc1, the IFI is reported as 3.45%.
CCOC(=O)c1ccc(NC(=O)N(Cc2ccc(-c3ccc(CN4CCNCC4)cc3)cc2)C2CCN(Cc3ccccc3)CC2)cc1 gave an IFI of 7.64%.
In the case of Fc1ccc(Nc2ccnc3cc(-c4ccc(CN5CCOCC5)o4)ccc23)c(Cl)c1, the IFI is reported as 11.3%.
Compound Cc1cccc2nc(-c3ccc(-c4ccc(CNCc5ccc(CN)cc5)cc4)s3)[nH]c12 has an IFI of 11.9%.
Cn1nc(-c2ccc(S(=O)(=O)N3CCC(CCN4CCC(c5c[nH]c6ccccc56)CC4)CC3)s2)cc1C(F)(F)F gave an IFI of 3.52%.
With COc1ccc2nccc([C@@H](O)CN3CCC(NCc4nc5ccccc5s4)CC3)c2c1 the IFI was 5.11%.
With CCN(c1ccccc1)S(=O)(=O)c1ccc(OC)c(NC(=O)c2cccc(C(F)(F)F)c2)c1 the IFI was 3.61%.
Cc1cc(-c2ccnc(Nc3cccc(C#N)c3)n2)cc(C)c1O gave an IFI of 3.57%.
For CN1CCCN(Cc2ccc(-c3cccc(NC(=O)c4ccc(C#N)cc4)c3)cc2)CC1, the IFI was 3.92%.
In the case of COc1ccccc1N(C)CCNc1cc(C)nc(Nc2ccc(C)cc2)n1, the IFI is reported as 6.25%.
Compound CC(C)(C)C(=O)Oc1ccc(CC2NCCc3cc(OC(=O)C(C)(C)C)c(OC(=O)C(C)(C)C)cc32)cc1OC(=O)C(C)(C)C (stereo not given) has an IFI of 0.7%.
ON=C1CCc2cc(-c3[nH]c(-c4cccc(OCCNCc5ccc(F)cc5)c4)nc3-c3ccncc3)ccc21 showed an IFI of 5.19%.
Work on CC(C#N)Cc1ccc(-c2cnc(N)c3cc(-c4ccnc(N)n4)ccc23)cc1 (stereo not given) yielded an IFI of 10.9%.
Work on Cc1cccc2nc(-c3cccc(-c4cccc(CNCCCN5CCCC5=O)c4)c3)[nH]c12 yielded an IFI of 4.9%.
Work on COc1ccc2[nH]c3ccccc3c(=O)c2c1 yielded an IFI of 2.26%.
For COc1ccc(CC(=O)NC2CCN(c3ccnc4cc(Cl)ccc34)C2)cc1 (stereo not given), the IFI was 1.54%.
In the case of CCc1cn2c3c(cc(C(=O)N[C@@H](Cc4ccccc4)[C@H](O)CNCc4ccccc4C)cc13)N(C)S(=O)(=O)CC2, the IFI is reported as 6.52%.
With Cc1ccc(NC(=O)NC2CCN(c3ccnc4cc(Cl)ccc34)C2)cc1 (stereo not given) the IFI was 3.08%.
Cc1ccccc1CNc1nccc(NCCC(=O)Nc2ccccc2)n1 gave an IFI of 12.2%.
For CN1CCN(CC2(Nc3nccc(NCCc4cn(C)c5ccccc45)n3)CCCCC2)CC1, the IFI was 14.3%.
Compound O=C(/C=C/c1ccc(Cl)c(Cl)c1)N1CCC(CCCN2CCC(c3c[nH]c4ccc(O)cc34)CC2)CC1 has an IFI of 10.2%.
COC(=O)c1ccc(Nc2nccc(Nc3ccc(Oc4ccccc4)cc3)n2)cc1 showed an IFI of 1.44%.
With CC1(C)N=C(N)N=C(N)N1c1ccc(I)cc1 the IFI was -0%.
With CN(C)CCNC(=O)c1ccc(-c2cnc3ccc(NCc4ccc(Cl)c(Cl)c4)nn23)cc1 the IFI was 9.02%.
With COc1cc(NC(=O)c2c(-c3c(F)cccc3Cl)noc2C)c(OC)cc1Cl the IFI was 0.7%.
Work on Cc1cc(F)ccc1-c1nc(NCC(O)CNCCc2ccccc2)nc2c1ccc(=O)n2-c1c(F)cccc1F (stereo not given) yielded an IFI of 5.47%.
Cc1cc(OCCCNC(=N)c2ccc3ccccc3c2)c(C(C)C)cc1Cl showed an IFI of 13%.
Cc1sc(N2CCN(C)CC2)nc1C(=O)Nc1ccc(F)cc1C(F)(F)F gave an IFI of -0%.
c1ccc(CNCCn2c(-c3ccc4c(c3)CCO4)nc3c(N4CCCC4)cccc32)cc1 gave an IFI of 3.47%.
COc1ccc(C2C(C(=O)Nc3ccc(C)cc3Br)c3ccccc3C(=O)N2C)cc1 (stereo not given) gave an IFI of 0.7%.
Compound COc1cccc(C(=O)Nc2nc3c(s2)CCN(Cc2ccccc2N2CCNCC2)CC3)c1 has an IFI of 9.38%.
In the case of COc1ccc(NC(=O)[C@H](CC(C)C)Nc2cc(C)nc(NCCc3cccs3)n2)cc1, the IFI is reported as 7.14%.
For CCC(C)NS(=O)(=O)c1ccc2nc(Nc3cccc(SC)c3)n(C(C)C(C)C)c2c1 (stereo not given), the IFI was -0%.
Compound COc1cc(Cc2cnc(N)nc2N)cc(OC)c1OCCNC(=O)[C@@H](N)CCC(=O)O has an IFI of 0%.
Work on O=C(/C=C/C=C/c1ccc(Cl)c(Cl)c1)NCCCCCN1CCCC2CCCCC21 (stereo not given) yielded an IFI of 5.19%.
Work on COc1ccc(-c2cccc(NC(=O)c3cccc(C#N)c3)c2)cc1CN1CCNCC1 yielded an IFI of 4.95%.
CCCCCN1CCC(NS(=O)(=O)c2cccc(C(=O)Nc3cccc(C(F)(F)F)c3)c2)C1 (stereo not given) gave an IFI of 4.12%.
CCN(C)C(=O)n1ncc2c3c(N)nc(N)nc3ccc21 gave an IFI of 2.52%.
In the case of CNCc1cccc2nc(-c3ccc(Cc4cc(Cl)ccc4OCC(C)C)o3)[nH]c12, the IFI is reported as 16.7%.
With Cc1cc(C)n(Cc2ccc(C(=O)NCC3CCCCC3)cc2)n1 the IFI was 1.43%.
CC(C)(C)c1ccc(CNC(=O)c2ccc(CNC3CCC(N)CC3)s2)cc1 (stereo not given) gave an IFI of 2.96%.
With COCCNCC(O)Cn1c2ccc(Cl)cc2c2cc(Cl)ccc21 (stereo not given) the IFI was 11.4%.
Compound CC(CN)OCn1cnc2c(N)ncnc21 (stereo not given) has an IFI of 2.19%.
CC1(C)N=C(N)N=C(N)N1OCCCc1ccccc1 showed an IFI of 4.35%.
Compound CC[C@H](N/C(=N\c1ccc(-c2ccccc2)cc1)Nc1ccc(C#N)cc1O)c1ccccc1 has an IFI of 0.72%.
With Cc1cn(CC(=O)Nc2cccc(-c3cccc(-c4nc5cc(C(F)(F)F)ccc5[nH]4)c3)c2)c(=O)[nH]c1=O the IFI was 1.71%.
Work on COc1ccc2nccc([C@@H](O)CN3CCC(NCc4nc5c(C#N)cccc5[nH]4)CC3)c2c1 yielded an IFI of 2.17%.
O=C(NC1CCN(CCN2CCc3ccccc3CC2)CC1)c1ccc(-c2ccc(C(F)(F)F)cc2)cc1 gave an IFI of 6.96%.
Compound CCc1cn2c3c(cc(C(=O)N[C@@H](Cc4ccccc4)[C@H](O)CNC4CC4)cc13)N(CC)S(=O)(=O)CC2 has an IFI of 3.7%.
NC(=O)NC(=O)C=Cc1ccco1 gave an IFI of 3.6%.
With COC(=O)c1cccc(CN(CCC(O)(C(F)(F)F)C(F)(F)F)C(=O)CC2CCCC2)c1 the IFI was 8.57%.
With CN1CCCC1CCOc1ccc2c(c1)N(C(=O)Nc1cc(Br)cc(C(F)(F)F)c1)CC2 (stereo not given) the IFI was 2.92%.
Compound COc1cccc(NC(=O)Nc2ccc(-c3oc(C(=O)NCC(c4ccccc4)N(C)C)cc3-c3ccncc3)cc2)c1 (stereo not given) has an IFI of 6.85%.
In the case of O=C(Nc1cccc(C(F)(F)F)c1)c1ccc(S(=O)(=O)NCC2CCCN2CC2CCCCC2)cc1 (stereo not given), the IFI is reported as 7.23%.
Work on CCOc1ccc(/C=C/C(=O)Nc2cccc3c2CCN(C)C3)cc1 yielded an IFI of 0%.
Work on O=c1cc(NCCCNCc2ccc(Cl)c(Cl)c2)[nH]c2ccc(C(F)(F)F)cc12 yielded an IFI of 2.33%.
For Nc1nc(N)c2c(ccc3c2ccn3CC2CC2)n1, the IFI was 1.45%.
CCN(CC)CCOc1c(Cl)cc(Cl)cc1CNCCCNc1cc(=O)c2ccccc2[nH]1 showed an IFI of 1.33%.
COc1ccc2c(c1)c(C1CCN(CCCCNC(=O)c3ccc(-c4ccc(C(F)(F)F)cc4)cc3)CC1)cn2C(C)C showed an IFI of 4.59%.
Work on COc1cccc(-c2[nH]c3ccccc3c2CN2CCC(c3c(C)cccc3C)CC2)c1 yielded an IFI of 7.75%.
In the case of O=C1C([N+](=O)[O-])=C(O)c2c(F)cccc21, the IFI is reported as -0%.
For CN(C(=O)NCCc1ccccc1)C1CCN(CCCCCNC(=O)/C=C/c2ccc(Cl)c(Cl)c2)CC1, the IFI was 9.09%.
Work on CCn1cnc2c(N3CCCCS3(=O)=O)cc(C(=O)N[C@@H](Cc3ccccc3)[C@H](O)CNC3CCOCC3)cc21 yielded an IFI of 0.74%.
Compound COc1cc(Cc2cnc(N)nc2N)cc(OCCCCC2SC(=O)NC2=O)c1OC (stereo not given) has an IFI of 0.72%.
In the case of N#Cc1ccc2c(c1)CCN(CCC1CCC(NC(=O)Nc3ccnc4ccccc34)CC1)C2 (stereo not given), the IFI is reported as 3.01%.
Work on O=C(NCCCNc1ccc2ccccc2n1)c1cc2c(Cl)cc(Cl)cc2[nH]1 yielded an IFI of 5.97%.
In the case of CCOc1ccc(C(Cc2ccccc2)NC(=O)c2cccnc2)cc1OCC (stereo not given), the IFI is reported as 0.83%.
In the case of COc1ccc2nc(C)cc(Nc3ccc(Cl)cc3)c2c1, the IFI is reported as 2.17%.
With O=C(NC1CCC(N2CCN(c3cccc(C(F)(F)F)c3)CC2)CC1)c1cc2ccccc2[nH]1 (stereo not given) the IFI was 17.6%.
Cc1cnc(C(=O)Nc2cccc(-c3csc(-c4nc5ccccc5[nH]4)c3)c2)cn1 gave an IFI of 3.74%.
In the case of Cc1ccccc1C1CCN(C2CCC(NC(=O)/C=C/c3ccc(C(F)(F)F)cc3)CC2)CC1 (stereo not given), the IFI is reported as 10%.
In the case of COc1cc2ccccc2c(CON2C(=N)N=C(N)NC2(C)C)c1OC, the IFI is reported as 2.82%.
With COc1cccc(CNC(=O)c2ccnc(-c3ccc(CNCCOc4ccccc4)cc3)c2)c1 the IFI was 3.77%.
Work on CN1CCN(c2cc(NC(=O)Nc3cccc(Cl)c3Cl)ccc2Cl)CC1 yielded an IFI of 4.29%.
Work on O=C(Nc1ccc(Cl)cc1)Nc1cccc(CCNCc2ccccc2)c1 yielded an IFI of 6.29%.
For COc1nc2c(CCN3CC[C@H](NCc4ccc5c(c4)NC(=O)CO5)[C@H](O)C3)c(Cl)cnc2cc1F, the IFI was 2.13%.
Work on Cc1cc(=O)[nH]c2cc(Nc3ccnc(Nc4cccc(C(N)=O)c4)n3)ccc12 yielded an IFI of 2.82%.
Compound CCNc1cc(C)nc(Nc2ccc(NC(=O)c3ccccc3)cc2)n1 has an IFI of 9.8%.
Compound COc1ccc(-c2ccc(NC(=O)c3cccc(Cl)c3)cc2)cc1CN1CCCN(C)CC1 has an IFI of 6.98%.
With Cc1cccc(CNc2nccc3[nH]c4ccccc4c23)c1 the IFI was 9.92%.
For O=C(NCCCCCN1CCC(c2c[nH]c3ccccc23)CC1)Nc1ccc(I)c(Cl)c1, the IFI was 6.3%.
Work on COc1cccc2cc(C(=O)N[C@@H](CC(C)C)C(=O)N[C@H](C=NNC(=O)OC(C)(C)C)Cc3ccccc3)oc12 yielded an IFI of 10%.
Compound Cc1ccc(NC(=O)NC2CCN(CCCCCNC(=O)C3CC3c3ccc(Cl)c(Cl)c3)CC2)cc1 (stereo not given) has an IFI of 12.4%.
For COc1ccccc1Oc1c(N(C)S(=O)(=O)c2ccc(C(C)C)cc2)nc(C(F)(F)F)nc1N(C)S(=O)(=O)c1ccc(C(C)C)cc1, the IFI was -0%.
COc1ccc(Cc2cccc(C(C(=O)NCc3cc(Cl)cc(Cl)c3)N3CCN(C)CC3)c2)cc1 (stereo not given) gave an IFI of 7.75%.
In the case of Cc1cc(N2CCOCC2)nc2ccc(NC(=O)c3cccc([N+](=O)[O-])c3)cc12, the IFI is reported as 1.52%.
With CCc1ccc(CN2CCC(CN(c3ccc(N4CCOCC4)c(F)c3)S(=O)(=O)c3ccc(C(C)(C)CC)cc3)CC2)cc1 the IFI was 3.76%.
Work on Fc1ccc(COc2ccc(Nc3ncnc4ccc(I)cc34)cc2Cl)cc1 yielded an IFI of 3.76%.
